# Assay results published in the supplement of paper PMC12217912.
# The list shows a part of the results. The full chains were built here from the parent and the listed change. Inactive controls read about 0.05.
# B1: TEV protease; numbered along this chain (parent)
# chain: MGESLFKGPRDYNPISSSICHLTNESDGHTTSLYGIGFGPFIITNKHLFRRNNGTLVVQSLHGVFKVKDTTTLQQHLVDGRDMIIIRMPKDFPPFPQKLKFREPQREERICLVTTNFQTKSMSSMVSDTSCTFPSGDGIFWKHWIQTKDGQCGSPLVSTRDGFIVGIHSASNFTNTNNYFTSVPKNFMELLTNQEAQQWVSGWRLNADSVLWGGHKVFMVKPEEPFQPVKEATQL
# Variants of: B1
# Assay: raw area under fraction-flipped curve 0-4 h after induction (AUC4h, not background-subtracted), DNA-recorder readout of cleavage of the substrate (dimensionless); higher = more cleavage of the substrate by the protease variant
# Conditions: temperature: 34 °C; time window: 0-4 h after rhamnose induction
# Experimental: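 In vivo DNA recorder in E. coli TOP10(DE3) ΔrhaA at 34 °C. Each TEVp single-site mutant (parent TEVp 0) is paired with a single-site variant of the 7-mer TEVs (canonical ENLYFQ|S). The substrate sits between flexible linkers in a Bxb1-sfGFP-TEVs-SsrA fusion, so cleavage stabilises Bxb1 and speeds flipping of a recombination array, read by NGS. The value is the raw area under the fraction-flipped curve over 0-4 h after rhamnose induction (AUC4h), with ≥20 reads per time point. It is not background-subtracted; inactive controls average about 0.047.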
# 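Note: Bxb1 expression induced with 0.2% (w/v) L-rhamnose at OD600 near 0.5, cultures sampled hourly, flipped fraction per protease–substrate barcode pair counted by paired-end Illumina sequencing.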
Variant,area with substrate ENAYFQS,area with substrate ENCYFQS,area with substrate ENEYFQS,area with substrate ENFYFQS,area with substrate ENHYFQS,area with substrate ENKYFQS,area with substrate ENNYFQS,area with substrate ENQYFQS,area with substrate ENRYFQS,area with substrate ENSYFQS,area with substrate ENVYFQS,area with substrate ENWYFQS,area with substrate ENGYFQS,area with substrate ENPYFQS,area with substrate ENTYFQS,area with substrate ENYYFQS,area with substrate ENDYFQS,area with substrate ENMYFQS,area with substrate ENIYFQS
G2L,0.0594,0.0621,0.0631,0.0457,0.0535,0.0773,0.0511,0.0508,0.0626,0.0561,0.0924,0.0506,–,–,–,–,–,–,–
E3T,0.0663,–,0.068,–,–,–,–,0.06,0.0675,0.0617,–,–,0.0322,0.054,0.0588,0.0487,–,–,–
S4Q,0.0541,0.0594,0.0572,–,0.0524,0.0579,0.0507,0.0614,–,0.0693,0.0805,0.0646,0.0562,0.0605,0.0682,0.0411,0.08,0.0954,–
L5A,0.0551,–,–,0.0546,–,0.0674,0.0548,0.0746,0.0728,–,–,–,0.0681,–,0.0701,–,0.0663,–,0.134
L5N,0.0437,0.0701,0.0603,0.0589,–,–,–,0.0653,0.0618,0.0564,0.0772,–,–,0.0567,–,0.0665,0.0552,–,–
L5W,0.0698,0.0779,0.0615,0.0647,–,–,0.0576,0.0583,0.0834,0.0672,0.0777,0.0714,0.0642,–,0.068,–,–,–,0.149
F6D,0.082,–,–,0.0641,–,–,0.0521,0.0576,–,0.0632,0.078,–,0.0617,–,–,–,0.0507,–,–
F6G,0.0559,0.0732,0.0499,–,–,–,–,0.0491,–,0.0772,–,–,–,–,0.0297,–,0.0711,–,–
F6S,0.0726,–,0.0619,–,0.0594,–,0.057,0.0547,0.0542,0.0645,0.0711,–,–,–,–,–,0.0387,–,–
F6W,0.0654,0.0618,0.107,–,0.061,0.0553,0.0641,–,0.0677,0.0716,0.0731,0.0484,0.0565,0.053,0.0684,–,–,0.0808,–
K7G,0.0613,0.103,–,–,–,–,0.0374,0.0698,0.0492,0.0693,–,–,–,–,0.0631,–,0.0338,–,–
K7L,0.0397,0.0621,0.0683,–,–,–,0.062,–,–,0.0747,0.0617,0.0075,–,0.0557,–,–,0.0725,–,–
R10F,0.0635,–,0.007,0.0807,0.0585,0.0614,0.0733,0.0692,0.0596,0.0675,0.0676,0.0598,0.0646,0.0582,0.0485,–,0.0792,0.0681,0.103
R10T,0.064,0.0601,0.0664,0.0694,–,0.0456,0.0727,0.0589,0.06,0.0531,0.0739,–,0.0682,–,0.0695,–,–,–,–
R10Y,0.0624,0.0577,0.0574,0.06,0.0507,0.05,0.0552,0.0701,0.0558,0.0592,0.0784,–,0.0683,–,0.062,0.0671,0.0639,0.0824,0.0763
D11C,0.0719,0.0517,0.0798,0.0635,0.0679,0.06,0.0624,0.0662,0.055,0.0643,0.0666,0.0439,0.0739,–,0.0524,0.0577,0.06,0.028,0.153
P14L,0.0708,0.0817,0.0496,0.0674,–,0.0695,0.0622,0.0608,0.0803,0.0747,0.0836,0.0639,0.0589,0.0587,0.0577,0.0649,0.0667,0.0937,0.108
I15T,0.053,0.0655,0.0635,0.0661,0.0597,0.0588,0.0547,0.0678,0.063,0.0575,0.0663,–,0.0115,0.0487,0.0663,–,0.0597,–,–
S17T,0.0661,–,0.0589,0.0641,0.104,0.0666,0.0737,0.0634,0.0549,0.0381,0.0842,–,–,0.0537,0.0439,–,0.0596,0.108,0.12
L22Q,0.0415,0.0431,0.0505,0.0456,0.044,–,0.0474,0.0285,0.0414,0.0519,–,–,0.055,–,0.0394,0.0479,0.0216,–,0.0288
E25F,0.0738,0.0727,0.0626,0.104,–,0.0165,0.0607,0.061,0.0615,0.0705,0.0498,–,0.0553,0.0546,0.0644,–,0.0599,–,–
E25H,0.0519,0.0712,0.063,–,0.0614,–,–,0.0689,–,0.051,0.0824,–,0.0548,0.0555,0.055,–,0.06,0.0887,0.101
E25M,0.0631,0.0721,0.0556,0.0595,0.0618,0.0555,–,0.0582,0.0514,0.0641,0.0683,0.0455,0.0589,0.0601,0.0596,0.093,0.0593,0.0951,0.115
S26Y,0.053,–,0.068,–,–,0.0176,–,0.0595,0.0425,0.0529,0.0444,–,–,–,0.0625,–,–,–,0.0763
D27M,0.0439,0.0613,0.0566,0.0582,0.0547,–,0.058,0.0634,0.0715,0.0885,0.0564,–,0.0518,0.0649,0.0689,0.0665,–,–,0.0773
D27N,0.0641,0.0742,0.0595,–,–,–,0.0697,0.0697,0.0583,–,0.0637,–,–,–,0.0713,–,0.0597,0.0591,0.0881
T30E,0.0503,0.0291,0.0486,0.0512,0.0587,–,0.0646,0.05,–,0.0666,0.0835,0.0521,–,0.0519,0.0499,–,0.056,0.0734,0.109
